Test results published in PMC6366758 (2019).

Columns and labels:
[1] = molecular target: RSHZ19; assay: SPR
[2] = molecular target: R1.42; assay: SPR

B1: Post-fusion F (other)
chain 1: not shown
chain 2: not shown
Kd [1]: 0.08 nM
koff [1]: 1e-05 s⁻¹
Kd [2]: 0.11 nM
koff [2]: 3.26e-05 s⁻¹
